Measured values reported in PMC7819943, “Rice protein-binding microarrays: a tool to detect cis-acting elements near promoter regions in rice”.
Some of the results follow.

These sequences were tested against T1, OsWOX13 (Oryza sativa, UniProt Q5QMM3 1-267) (assay: protein-binding microarray (RPBM); PBS, 2% BSA, 51.3 ng/ul salmon testes DNA, 50 uM zinc acetate, 200 nM TF, 25 C, 1 h; high values mean tight binding). Details: protein: recombinant; tags: N-terminal polyhistidine and DsRed monomer fusion (pET32a); label: CyDye5-dUTP incorporated in the synthesized complementary strand; 3' TTTTT single-stranded linker to array surface; dsDNA, one strand shown.
T1 sequence: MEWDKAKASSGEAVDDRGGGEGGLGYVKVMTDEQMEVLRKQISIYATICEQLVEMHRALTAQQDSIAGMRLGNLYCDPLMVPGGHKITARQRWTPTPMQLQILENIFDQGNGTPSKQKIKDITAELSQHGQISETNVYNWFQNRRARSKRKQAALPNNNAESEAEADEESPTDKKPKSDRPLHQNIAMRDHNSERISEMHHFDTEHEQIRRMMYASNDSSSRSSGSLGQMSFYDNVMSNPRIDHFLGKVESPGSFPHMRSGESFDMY
Summary of the method: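 In PBS with 2% BSA, salmon testes DNA and 50 µM zinc acetate, 200 nM protein was incubated on a custom Agilent array at 25 °C for 1 h and then washed off. The array had been made double-stranded by primer extension with Cy5-dUTP and blocked with 2% BSA. The proteins were transcription factors fused N-terminally to polyhistidine and DsRed, expressed in E. coli BL21-CodonPlus and purified on Ni–NTA. The binding signal is per-feature fluorescence intensity (arbitrary units) from an Axon 4000B scanner.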

Sequence	binding signal
GTATTAATTTCCCTATCATGTTTACAACATGGCGCAGGTTCGGAGTCACCTAGTGCAG	23500 fluorescence intensity (a.u.)
AAATAGTTAATTGATAAATCTAAAAGTGGCAACCCCAAATCGGAGTCACCTAGTGCAG	27900 fluorescence intensity (a.u.)
TATTAATTTCCAAATAAATTGCTATGTCAATGCCACGTCACGGAGTCACCTAGTGCAG	33600 fluorescence intensity (a.u.)
TAACATAATCCTCGAATTATTAATTAGTTAACTATAAGAGCGGAGTCACCTAGTGCAG	3510 fluorescence intensity (a.u.)
ACAAAATAATTATCATAATAGAGTACTAATTGTCTCATAACGGAGTCACCTAGTGCAG	24200 fluorescence intensity (a.u.)
TGTGGTTACAACATGATTGTGTCTCTATTTAAGAGAGAGTCGGAGTCACCTAGTGCAG	3280 fluorescence intensity (a.u.)
TTGAAGTAATTTATTATCAATATCACTTCCAAGGAAATAACGGAGTCACCTAGTGCAG	6100 fluorescence intensity (a.u.)
ATGTGATTTGGCACGCCTTCAGCTGTAATATTTGGCGCTTCGGAGTCACCTAGTGCAG	4490 fluorescence intensity (a.u.)
CAATAAATTAGCACATAATTAATTAAGTATTTATTTATTTCGGAGTCACCTAGTGCAG	34500 fluorescence intensity (a.u.)
TGGGGCGCATGACTGTATCAATCAATGCCTACTAATATGACGGAGTCACCTAGTGCAG	15400 fluorescence intensity (a.u.)
ATGAAATGTATGTTCAAATTCTTCGTTAGGATTGGATTATCGGAGTCACCTAGTGCAG	8580 fluorescence intensity (a.u.)
ACCCTGATTAACGATTTCCATCAACATCACAACGCCACCACGGAGTCACCTAGTGCAG	41000 fluorescence intensity (a.u.)
AATGATTGGAGCTAATGAACTTGGTTTGCCAAGTGCCCTCCGGAGTCACCTAGTGCAG	39900 fluorescence intensity (a.u.)
TTCCGGCCTAGATTGAATCTGGGTTTAACCGTAAGAGTCCCGGAGTCACCTAGTGCAG	6260 fluorescence intensity (a.u.)
ATGCTAATTACACCACCTAATTTGTTGTATCTACATGCCACGGAGTCACCTAGTGCAG	35700 fluorescence intensity (a.u.)
TTTAGAAATGATAATTTACAGCACATAAATTCAAGGAACGCGGAGTCACCTAGTGCAG	8490 fluorescence intensity (a.u.)
ACGAAAATTATCATGCATAAATAGTATTGCGTTCTGTAGTCGGAGTCACCTAGTGCAG	10300 fluorescence intensity (a.u.)
CCTGCACATAATTTACATTATTTTCAAAACCCTTGCCTATCGGAGTCACCTAGTGCAG	14300 fluorescence intensity (a.u.)
GGGTGATTTGTTGTAATGACGCGTGTGGTGGGGTGTGTGGCGGAGTCACCTAGTGCAG	45700 fluorescence intensity (a.u.)
ATGTAACTAGTATATAATCATCACTCATCATTATGTATGTCGGAGTCACCTAGTGCAG	9480 fluorescence intensity (a.u.)
CCAACCAATCAGCTGTGTTTGTTGGTGTCCAGAGCATGTGCGGAGTCACCTAGTGCAG	10200 fluorescence intensity (a.u.)
AATGACAACAGTAGTCCTAAATTGACCAACTATAATCGAGCGGAGTCACCTAGTGCAG	4820 fluorescence intensity (a.u.)
TCTTGATTTATTTTAGGACGGGTGGGTAGTTTTCTGCGTTCGGAGTCACCTAGTGCAG	42900 fluorescence intensity (a.u.)
